Laboratory results published in the supplement of paper PMC8728848.
This is one part of the list.

Columns and labels:
Test in all cases: glycan array binding signal (z-score within array); higher = stronger binding
Conditions in all cases: glycan notation: IUPAC condensed, linker removed
[1] = target: Gal(b1-4)GlcNAc(b1-2)Man(a1-6)[GlcNAc(b1-2)Man(a1-3)]Man(b1-4)GlcNAc(b1-4)GlcNAc
How it was run: (§1)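 Glycan array data were curated from 3228 arrays in the Consortium for Functional Glycomics database and kept only where the protein sequence was available. Glycan names were converted to IUPAC-condensed notation, and columns mapping to the same glycan were averaged. The binding signal is a within-array Z-score, averaged across arrays of the same protein sequence at different concentrations or buffers and across linkers. Negative Z-scores can be read as non-binding.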

[2] = target: Gal(b1-4)GlcNAc(b1-2)Man(a1-6)[Man(a1-3)]Man(b1-4)GlcNAc(b1-4)GlcNAc
How it was run: as §1

[3] = target: Gal(b1-4)GlcNAc(b1-2)[Gal(b1-4)GlcNAc(b1-4)]Man(a1-3)[Gal(b1-4)GlcNAc(b1-2)Man(a1-6)]Man(b1-4)GlcNAc(b1-4)GlcNAc
How it was run: as §1

[4] = target: Gal(b1-4)GlcNAc(b1-2)[Gal(b1-4)GlcNAc(b1-4)]Man(a1-3)[Gal(b1-4)GlcNAc(b1-2)[Gal(b1-4)GlcNAc(b1-6)]Man(a1-6)]Man(b1-4)GlcNAc(b1-4)GlcNAc
How it was run: as §1

[5] = target: Gal(b1-4)GlcNAc(b1-2)[Gal(b1-4)GlcNAc(b1-4)]Man(a1-3)[GlcNAc(b1-4)][Gal(b1-4)GlcNAc(b1-2)Man(a1-6)]Man(b1-4)GlcNAc(b1-4)GlcNAc
How it was run: as §1

[6] = target: Gal(b1-4)GlcNAc(b1-2)[Gal(b1-4)GlcNAc(b1-4)]Man(a1-3)[GlcNAc(b1-4)][Gal(b1-4)GlcNAc(b1-2)[Gal(b1-4)GlcNAc(b1-6)]Man(a1-6)]Man(b1-4)GlcNAc(b1-4)GlcNAc
How it was run: as §1

[7] = target: Gal(b1-4)GlcNAc(b1-2)[Gal(b1-4)GlcNAc(b1-6)]Man(a1-6)[Gal(b1-4)GlcNAc(b1-2)Man(a1-3)]Man(b1-4)GlcNAc(b1-4)GlcNAc
How it was run: as §1

[8] = target: Gal(b1-4)GlcNAc(b1-2)[Gal(b1-4)GlcNAc(b1-6)]Man(a1-6)[Gal(b1-4)GlcNAc(b1-2)Man(a1-3)]Man(b1-4)GlcNAc(b1-4)[Fuc(a1-6)]GlcNAc
How it was run: as §1

[9] = target: Gal(b1-4)GlcNAc(b1-2)[Gal(b1-4)GlcNAc(b1-6)]Man(a1-6)[GlcNAc(b1-4)][Gal(b1-4)GlcNAc(b1-2)Man(a1-3)]Man(b1-4)GlcNAc(b1-4)GlcNAc
How it was run: as §1

[10] = target: Gal(b1-4)GlcNAc(b1-2)[Gal(b1-4)GlcNAc(b1-6)]Man(a1-6)[GlcNAc(b1-4)][Gal(b1-4)GlcNAc(b1-2)[Gal(b1-4)GlcNAc(b1-4)]Man(a1-3)]Man(b1-4)GlcNAc(b1-4)[Fuc(a1-6)]GlcNAc
How it was run: as §1

[11] = target: Gal(b1-4)GlcNAc(b1-3)Gal(b1-3)GalNAc
How it was run: as §1

[12] = target: Gal(b1-4)GlcNAc(b1-3)Gal(b1-3)GlcNAc
How it was run: as §1

[13] = target: Gal(b1-4)GlcNAc(b1-3)Gal(b1-4)Glc
How it was run: as §1

[14] = target: Gal(b1-4)GlcNAc(b1-3)Gal(b1-4)GlcNAc
How it was run: as §1

[15] = target: Gal(b1-4)GlcNAc(b1-3)Gal(b1-4)GlcNAc(b1-2)Man(a1-3)[Gal(b1-4)GlcNAc(b1-3)Gal(b1-4)GlcNAc(b1-2)Man(a1-6)]Man(b1-4)GlcNAc(b1-4)GlcNAc
How it was run: as §1

[16] = target: Gal(b1-4)GlcNAc(b1-3)Gal(b1-4)GlcNAc(b1-2)Man(a1-3)[Gal(b1-4)GlcNAc(b1-3)Gal(b1-4)GlcNAc(b1-2)Man(a1-6)]Man(b1-4)GlcNAc(b1-4)[Fuc(a1-6)]GlcNAc
How it was run: as §1

[17] = target: Gal(b1-4)GlcNAc(b1-3)Gal(b1-4)GlcNAc(b1-2)[Gal(b1-4)GlcNAc(b1-3)Gal(b1-4)GlcNAc(b1-6)]Man(a1-6)[Gal(b1-4)GlcNAc(b1-3)Gal(b1-4)GlcNAc(b1-2)Man(a1-3)]Man(b1-4)GlcNAc(b1-4)GlcNAc
How it was run: as §1

[18] = target: Gal(b1-4)GlcNAc(b1-3)Gal(b1-4)GlcNAc(b1-2)[Gal(b1-4)GlcNAc(b1-3)Gal(b1-4)GlcNAc(b1-6)]Man(a1-6)[Gal(b1-4)GlcNAc(b1-3)Gal(b1-4)GlcNAc(b1-2)Man(a1-3)]Man(b1-4)GlcNAc(b1-4)[Fuc(a1-6)]GlcNAc
How it was run: as §1

[19] = target: Gal(b1-4)GlcNAc(b1-3)Gal(b1-4)GlcNAc(b1-3)Gal(b1-4)GlcNAc
How it was run: as §1

[20] = target: Gal(b1-4)GlcNAc(b1-3)Gal(b1-4)GlcNAc(b1-3)Gal(b1-4)GlcNAc(b1-2)Man(a1-3)[Gal(b1-4)GlcNAc(b1-3)Gal(b1-4)GlcNAc(b1-3)Gal(b1-4)GlcNAc(b1-2)Man(a1-6)]Man(b1-4)GlcNAc(b1-4)GlcNAc
How it was run: as §1

[21] = target: Gal(b1-4)GlcNAc(b1-3)Gal(b1-4)GlcNAc(b1-3)Gal(b1-4)GlcNAc(b1-2)Man(a1-3)[Gal(b1-4)GlcNAc(b1-3)Gal(b1-4)GlcNAc(b1-3)Gal(b1-4)GlcNAc(b1-2)Man(a1-6)]Man(b1-4)GlcNAc(b1-4)[Fuc(a1-6)]GlcNAc
How it was run: as §1

[22] = target: Gal(b1-4)GlcNAc(b1-3)Gal(b1-4)GlcNAc(b1-3)Gal(b1-4)GlcNAc(b1-2)[Gal(b1-4)GlcNAc(b1-3)Gal(b1-4)GlcNAc(b1-3)Gal(b1-4)GlcNAc(b1-6)]Man(a1-6)[Gal(b1-4)GlcNAc(b1-3)Gal(b1-4)GlcNAc(b1-3)Gal(b1-4)GlcNAc(b1-2)Man(a1-3)]Man(b1-4)GlcNAc(b1-4)[Fuc(a1-6)]GlcNAc
How it was run: as §1

B1: CFEM-PPl (Pichia pastoris), F2QPV1 (protein)
chain: AVATPPACLLACAAEVVKESSDCDALNNIQCICENEGSAIHACLESTCPDGLSSTALQSFEDVCESVGTEANLDE
- glycan array binding signal (z-score) [1]: -0.271
- glycan array binding signal (z-score) [2]: -0.179
- glycan array binding signal (z-score) [3]: 0.162
- glycan array binding signal (z-score) [4]: 0.132
- glycan array binding signal (z-score) [5]: 0.051
- glycan array binding signal (z-score) [6]: 0.16
- glycan array binding signal (z-score) [7]: -0.024
- glycan array binding signal (z-score) [8]: 0.199
- glycan array binding signal (z-score) [9]: -0.162
- glycan array binding signal (z-score) [10]: 0.333
- glycan array binding signal (z-score) [11]: -0.357
- glycan array binding signal (z-score) [12]: -0.279
- glycan array binding signal (z-score) [13]: -0.046
- glycan array binding signal (z-score) [14]: -0.045
- glycan array binding signal (z-score) [15]: 0.453
- glycan array binding signal (z-score) [16]: 0.174
- glycan array binding signal (z-score) [17]: 0.302
- glycan array binding signal (z-score) [18]: 0.258
- glycan array binding signal (z-score) [19]: -0.06
- glycan array binding signal (z-score) [20]: 0.383
- glycan array binding signal (z-score) [21]: 0.246
- glycan array binding signal (z-score) [22]: 0.323
